The text below walks through data of PMC4336329 (PLoS ONE, 2015).

The whole screen tested about 310,000 compounds, of which about 14,000 (4.5%) showed an effect of 50% or more. Effects have a minus sign here. Some of the results follow.
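Also: peak tail current of the secondary pulse compared with the same well before compound.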

For this assay, the target named is human ether-à-go-go-related gene (hERG) potassium channel (human, UniProt Q12809). Description: primary screen, population patch clamp on CHO cells stably expressing hERG.
human ether-à-go-go-related gene (hERG) potassium channel, sequence (Q12809 whole entry, looked up): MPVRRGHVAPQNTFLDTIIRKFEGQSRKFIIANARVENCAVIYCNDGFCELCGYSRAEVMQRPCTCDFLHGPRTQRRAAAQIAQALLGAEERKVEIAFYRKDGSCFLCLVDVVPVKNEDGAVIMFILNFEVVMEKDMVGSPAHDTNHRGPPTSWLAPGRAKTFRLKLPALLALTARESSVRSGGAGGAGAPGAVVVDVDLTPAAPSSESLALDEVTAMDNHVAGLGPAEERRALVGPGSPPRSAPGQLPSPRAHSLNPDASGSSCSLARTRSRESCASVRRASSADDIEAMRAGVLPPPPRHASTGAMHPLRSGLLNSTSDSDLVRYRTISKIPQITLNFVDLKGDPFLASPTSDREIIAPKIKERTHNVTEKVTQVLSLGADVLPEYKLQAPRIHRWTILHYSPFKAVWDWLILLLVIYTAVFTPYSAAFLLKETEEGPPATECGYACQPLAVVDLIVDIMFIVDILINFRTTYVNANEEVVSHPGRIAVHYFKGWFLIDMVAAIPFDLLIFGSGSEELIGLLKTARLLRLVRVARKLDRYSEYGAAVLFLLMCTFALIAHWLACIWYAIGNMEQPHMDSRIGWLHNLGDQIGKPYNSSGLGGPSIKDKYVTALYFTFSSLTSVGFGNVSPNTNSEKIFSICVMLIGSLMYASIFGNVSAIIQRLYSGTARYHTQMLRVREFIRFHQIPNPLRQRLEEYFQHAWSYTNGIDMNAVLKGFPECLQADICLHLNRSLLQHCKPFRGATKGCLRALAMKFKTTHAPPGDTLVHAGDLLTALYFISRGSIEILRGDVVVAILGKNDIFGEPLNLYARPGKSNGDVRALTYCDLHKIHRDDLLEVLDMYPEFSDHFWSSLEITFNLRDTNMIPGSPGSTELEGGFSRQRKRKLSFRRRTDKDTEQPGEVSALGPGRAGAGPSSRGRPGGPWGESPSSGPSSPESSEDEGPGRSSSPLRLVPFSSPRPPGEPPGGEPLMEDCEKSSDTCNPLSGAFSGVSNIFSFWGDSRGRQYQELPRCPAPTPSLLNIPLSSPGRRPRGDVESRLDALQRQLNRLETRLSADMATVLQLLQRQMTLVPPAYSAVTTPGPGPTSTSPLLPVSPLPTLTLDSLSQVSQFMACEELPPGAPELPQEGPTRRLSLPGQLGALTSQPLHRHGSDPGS
As for `N#C/C(=C\c1cccc(O)c1)C(=O)Nc1ccc2c(c1)OCCO2`, the “hERG current change (%, negative = inhibition) at 10uM” value amounted to 4.69%.

Take `Cc1c(C(=O)NN)[nH]c2ccc([N+](=O)[O-])cc12`: the “hERG current change (%, negative = inhibition) at 10uM” value is on record as 23.5%.

Consider `O=C1CCCc2c1nc(-c1cccc(Cl)c1)n2O`, for which the “hERG current change (%, negative = inhibition) at 10uM” value is -5.95%.

With `COc1ccccc1C(=O)Nc1ccnn1C1CCN(C(=O)c2ccoc2)CC1`, the “hERG current change (%, negative = inhibition) at 10uM” value is reported as -47.4%. In the case of `COc1ccc(Nc2nc(N3CCOCC3)nc(N3CCOCC3)n2)cc1Cl` it was -18.5%; in that of `C[C@@H]1NC(=O)c2cc([N+](=O)[O-])cc(I)c2NCCCC[C@@H](C(N)=O)NC(=O)[C@H](CC(N)=O)NC1=O`, 15.9%; in that of `S=C(NCc1ccco1)N1CCN(c2nc(-c3ccccc3)cs2)CC1`, 23.7%. In the case of `COc1ccc2[nH]c(=O)c(CN(Cc3nnnn3Cc3ccc(F)cc3)CC3CCCO3)cc2c1` (centres unmarked) it was -48.6%; in that of `CCOc1ncccc1C(=O)OCC(=O)N(CC)c1ccccc1`, -6.17%. Regarding `CCCCOC(=O)C1=C(C)NC(=O)NC1c1ccc(OC)cc1` (centres unmarked), the “hERG current change (%, negative = inhibition) at 10uM” value was 16.4%.

On to `CC(=O)N(C)c1nnc(-c2cnccn2)s1`, for which the “hERG current change (%, negative = inhibition) at 10uM” value is on record as 14%. In the case of `COC(=O)C1=C(Nc2ccc(C)cc2)C=C(C)C(C(=O)OC)C1c1ccc(OC)cc1` (centres unmarked) it was 20.8%.

On to `CCOC(=O)N1CCN(C(=O)CN(C)S(=O)(=O)c2ccc3c(c2)C(C)(C)C(=O)N3C)CC1`, for which the “hERG current change (%, negative = inhibition) at 10uM” value is 8.13%. In the case of `COc1ccc(N(C(=O)CNC(=O)c2ccco2)C(C(=O)NC2CCCCC2)c2ccncc2)cc1` (centres unmarked) it was 14.1%; in that of `C=CCNC(=S)Nc1ccc(Br)cc1F`, 7.09%; in that of `O=Cc1cn(CC(O)Cn2cc(C=O)c3ccccc32)c2ccccc12`, -0.272%. Next, `CC1Cc2ccccc2N1C(=O)CN(C)CC(=O)Nc1ccc(F)cc1` (centres unmarked): -37.5%. In the case of `CC(C)OC(=O)c1cc2ccccc2oc1=O` it was 11.4%; in that of `CCOC(=O)c1sc(NC(=O)CNCc2ccccn2)c(C(=O)OCC)c1C`, -3.45%; in that of `O=C(Cc1ccccc1[N+](=O)[O-])N1CCN(Cc2ccc3c(c2)OCO3)CC1`, -1.67%. Turning to `CCOc1ccccc1NS(=O)(=O)c1cc2c3c(c1)C(C)C(=O)N3CCC2` (centres unmarked), the “hERG current change (%, negative = inhibition) at 10uM” value stood at 5.26%. As to `CNC(=O)CN1C(=O)NC2(CCc3ccccc32)C1=O` (centres unmarked), the “hERG current change (%, negative = inhibition) at 10uM” value came out at 17.2%. Regarding `O=C(CN1C(=O)CSc2ccc(S(=O)(=O)N3CCOCC3)cc21)NCc1cccnc1`, the “hERG current change (%, negative = inhibition) at 10uM” value is recorded as 6.4%.

Regarding `COc1ccc(OC)c(NC(=O)C(C)Oc2ccc(Br)cc2)c1` (centres unmarked), the “hERG current change (%, negative = inhibition) at 10uM” value came to 5.96%. As for `Fc1ccc(N2CCN(Cc3ccc4c(c3)OCO4)CC2)cc1`, the “hERG current change (%, negative = inhibition) at 10uM” value is -51.3%. As for `Cn1c(SCC(=O)c2ccccc2)nnc1-c1cccnc1`, the “hERG current change (%, negative = inhibition) at 10uM” value is -10.3%.

`CCOC(=O)c1ccc(NC(=O)CSCC(=O)OCC(=O)c2ccccc2)cc1`: the “hERG current change (%, negative = inhibition) at 10uM” value was -0.367%. In the case of `CN(C)S(=O)(=O)c1cccc(NC(=O)Cc2ccsc2)c1` it was -10.2%; in that of `COc1ccc(N(CC(=O)Nc2nccs2)S(=O)(=O)c2c(C)nn(C)c2C)cc1`, -14.2%. In the case of `COC(=O)C(CC(=O)O)NCc1ccco1` (centres unmarked) it was 9.66%. Next, `Clc1cccc(Cl)c1CN1CCN(c2ccccc2)CC1`: 11.8%; `Cc1sc(/N=C/c2ccccc2O)c(C#N)c1C`: 27.8%. For `O=C(CNC(=O)C1CCCCC1)Nc1ccccc1Cl`, the “hERG current change (%, negative = inhibition) at 10uM” value was -4.43%. Regarding `COC(=O)c1cc(C(=O)OC)n(Cc2ccc(F)cc2)n1`, the “hERG current change (%, negative = inhibition) at 10uM” value is -12.9%.

On to `CCOc1ccccc1NC(=O)NC1(C(=O)N2CCOCC2)CCCCC1`, for which the “hERG current change (%, negative = inhibition) at 10uM” value turned out to be 15.6%. In the case of `CCc1ccc(NC(=O)c2cccc(NC3=NC4CS(=O)(=O)CC4S3)c2)cc1` (centres unmarked) it was 18%; in that of `CSc1ccc(/C=N/NC(=O)c2ccc(C)c(C)c2)cc1`, -4.84%; in that of `CC[C@H]1CC2CN3CCc4c([nH]c5ccccc45)C(C(=O)OC)(C2)C13.Cl` (some centres unmarked), -2.97%.

Consider `COc1cccc2cc(C(=O)N3CCN(C45CC6CC(CC(C6)C4)C5)CC3)c(=O)oc12`, for which the “hERG current change (%, negative = inhibition) at 10uM” value is on record as 1.88%. In the case of `O=C(NN1CCOCC1)c1cnn2c(C(F)F)cc(-c3ccccc3)nc12` it was 0.323%; in that of `O=c1[nH]c(C2CCN(S(=O)(=O)c3ccc4c(c3)OCCO4)CC2)nc2c1nnn2Cc1ccccc1F`, 4.55%. As for `CCOC(=O)C(Cc1ccc(N)cc1)N1C(=O)c2ccccc2C1=O.Cl` (centres unmarked), the “hERG current change (%, negative = inhibition) at 10uM” value is reported as 11.7%. In the case of `Cc1ccc(C(=O)Nc2c(N)nc(SCC(=O)NCC3CCCO3)[nH]c2=O)cc1` (centres unmarked) it was 26.3%. Next, `O=C(c1ccco1)N1CCN(S(=O)(=O)c2ccc(Br)s2)CC1`: -16%. In the case of `COc1cc(/C=N/n2c(-c3cc(C)[nH]n3)n[nH]c2=S)ccc1O` it was 18.5%; in that of `Fc1ccc(NC(=S)Nc2cccc3cnccc23)cc1`, 14.1%. For the molecule `CC1(CC(=O)N/N=C/c2cc([N+](=O)[O-])c(O)cc2O)OCCO1`, the “hERG current change (%, negative = inhibition) at 10uM” value is reported as 12.9%. In the case of `COc1nc(-c2ccccc2Cl)ccc1C#N` it was 1.38%; in that of `Cc1cccc(N2CCN(C(=S)Nc3ccc4nc(N5CCN(C)CC5)cc(C)c4c3)CC2C)c1` (centres unmarked), 5.63%; in that of `CCCCc1nnc(NC(=O)Cn2cnc3ccccc3c2=O)s1`, -6.83%. In the case of `COC(=O)c1ccccc1N(C)S(=O)(=O)c1cc2c3c(c1)CCC(=O)N3CCC2` it was -4.11%; in that of `Cc1ccc(-c2nn(C)c(=O)c3ccccc23)cc1CO`, -2.66%. In the case of `CC(NC(=O)NNC(=O)c1ccncc1)(C(F)(F)F)C(F)(F)F` it was -1.64%.

As for `Cc1ccc(-c2cc(C(=O)Nc3c(C)n(C)n(-c4ccccc4)c3=O)[nH]n2)c(O)c1`, the “hERG current change (%, negative = inhibition) at 10uM” value is recorded as 9.59%. Regarding `Cc1cccnc1NC(=O)c1cccc(S(=O)(=O)NCc2ccccc2)c1`, the “hERG current change (%, negative = inhibition) at 10uM” value is reported as -14.9%. Next, `CCC(Oc1ccccc1)C(=O)Nc1ccc(S(=O)(=O)N2CCOCC2)cc1` (centres unmarked): -28.2%.
